Measured values from PubChem BioAssay AID1030 (National Center for Advancing Translational Sciences (NCATS), 2008).
Screen size: about 220,000 compounds; about 16,000 (7.3%) were called active. The shares of active, inactive and inconclusive entries below differ from those in the screen. Calls come from the whole dose curve; as a rule, active = well fitted inhibition curve with a large enough effect (not every such curve was filed as active); inconclusive = small, poorly fitted or top-dose-only effect, or another doubt; inactive = no such curve, though single readings can be large or run the other way. Where the call is inconclusive, the potency comes from a doubtful curve fit.

Target: Aldehyde dehydrogenase 1A1 (Homo sapiens) (UniProt P00352)
Sequence of UniProt P00352 (P00352 whole entry, looked up): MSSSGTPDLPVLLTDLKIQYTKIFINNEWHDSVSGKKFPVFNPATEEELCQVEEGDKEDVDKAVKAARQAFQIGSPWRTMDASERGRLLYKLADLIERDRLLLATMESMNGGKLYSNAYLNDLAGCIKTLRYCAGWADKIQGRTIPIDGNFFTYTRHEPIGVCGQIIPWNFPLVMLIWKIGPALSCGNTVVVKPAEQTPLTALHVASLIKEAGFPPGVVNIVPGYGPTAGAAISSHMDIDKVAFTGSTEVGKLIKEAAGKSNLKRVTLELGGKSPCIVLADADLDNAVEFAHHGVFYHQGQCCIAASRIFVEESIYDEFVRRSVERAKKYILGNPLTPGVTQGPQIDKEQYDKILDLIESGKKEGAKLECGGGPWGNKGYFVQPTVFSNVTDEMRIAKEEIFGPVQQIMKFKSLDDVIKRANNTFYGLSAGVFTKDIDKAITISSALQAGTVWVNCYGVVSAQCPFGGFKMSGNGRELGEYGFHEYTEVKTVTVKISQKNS
Experiment: qHTS Assay for Inhibitors of Aldehyde Dehydrogenase 1 (ALDH1A1);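 for activity, negative = inhibition: plate controls were no enzyme wells and a reference inhibitor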
Conditions: Purified ALDH1A1, NADH fluorescence, propionaldehyde substrate; series mostly up to 75.3 µM; activity, negative = inhibition: at the top concentration
Potency is the fitted concentration of half-maximal effect; tags give direction and shape of the fitted curve.

Potency, inconclusive:
Cc1ccccc1CN1C(=O)C2(OCCCO2)c2ccccc21 39.8 µM [inhibitor, single point]
COc1ccc(C(=O)N2CCCC(c3ccccc3)C2)cc1 (centres undefined) 17.8 µM [inhibitor, partial curve, poor fit]
CCc1cc2c(=O)c(-c3cnn(-c4ccccc4)c3)coc2c(CN2CCOCC2)c1O 28.2 µM [inhibitor, partial curve]
C=CCn1c(SCC#N)nc2sc(CC)cc2c1=O 0.0447 µM [inhibitor, full curve]
COc1cc(OC)cc(C(=O)N/N=C/c2ccc(OC)c(COc3ccc4ccccc4c3)c2)c1 39.8 µM [inhibitor, single point]
CC1(C)CC2CC(C)(CN2C(=O)CCCN2C(=O)c3ccccc3C2=O)C1 (centres undefined) 44.7 µM [inhibitor, single point]
CCOc1cc(N2CCOCC2)c(OCC)cc1NC(=O)COC(=O)CCc1c[nH]c2ccccc12 44.7 µM [inhibitor, single point]
Nc1c2c(nc3ccc(Br)cc13)N(C1CCCCC1)CC2 35.5 µM [inhibitor, single point]
O=C(COC(=O)c1ccccc1NS(=O)(=O)c1ccc(Cl)cc1)NCc1ccccc1 37.7 µM [inhibitor, single point]
Cc1ccc(NC(=O)CC2SC(=NC3CCCCC3)NC2=O)cc1 (centres undefined) 39.8 µM [inhibitor, single point]
Cc1ccc(NS(=O)(=O)c2ccc(Br)s2)nc1 39.8 µM [inhibitor, single point]
O=C(Nc1ccc2c(c1)oc1ccc(S(=O)(=O)N3CCCC3)cc12)C1CC1 35.5 µM [inhibitor, single point]
N#Cc1ccccc1Sc1ccccc1C(=O)Nc1ccc2ccccc2c1 28.2 µM [inhibitor, partial curve]
COc1ccccc1C(CC(=O)Nc1ccc(Cl)cc1)c1ccc(OC(C)C)cc1 (centres undefined) 1.41 µM [inhibitor, partial curve]
O=C(Nc1nccs1)c1cc2c(s1)CCCCC2 12.6 µM [inhibitor, partial curve]
COC(=O)C1=C(C)NC(C)=C(C(=O)OC)C1c1cc2ccc(C)cc2[nH]c1=O 39.8 µM [inhibitor, single point]
c1ccc(Cc2nc(-c3ccccn3)no2)cc1 17.8 µM [inhibitor, partial curve]
CCCCn1c(=O)[nH]c(=O)c2c1nc(-c1ccc(-c3ccccc3Br)o1)n2CC 25.1 µM [inhibitor, single point]
CC1=N/C(=C/c2ccc([N+](=O)[O-])cc2)C(=O)N1c1ccc(Cl)cc1Cl 25.1 µM [inhibitor, single point]
COc1cccc(/C=C2\N=C3CCCCCN3C2=O)c1 22.4 µM [inhibitor, single point]
CCn1nc(C)c(CN2CCc3c([nH]c4ccccc34)C2c2ccc(F)c(OC)c2)c1C (centres undefined) 37.7 µM [inhibitor, single point]
CN(Cc1ccccc1)S(=O)(=O)c1ccc2c(c1)OCCO2 39.8 µM [inhibitor, single point]
NC(=S)N(c1ccccc1)c1ccccc1 29.9 µM [inhibitor, single point]
COC(=O)Cc1ccc(NC(=S)N2CCCC(C)C2)cc1 (centres undefined) 22.4 µM [inhibitor, partial curve]
COc1ccc(NC(=O)COC(=O)C2CCCCC2)c([N+](=O)[O-])c1 39.8 µM [inhibitor, single point]
C1CCN(C2CCN(c3nc4nonc4nc3N3CCSCC3)CC2)C1 44.7 µM [inhibitor, single point]
NS(=O)(=O)c1ccc(NC(=O)CSc2ccccn2)cc1 14.1 µM [inhibitor, partial curve]
O=C1CC(c2ccccc2)CC(O)=C1C=NCc1ccco1 (centres undefined) 39.8 µM [inhibitor, single point]
O=C(CCCCCn1c(=O)[nH]c2ccccc2c1=O)NCCCN1CCN(c2ccccc2F)CC1 39.8 µM [inhibitor, single point]
Cc1csc(SCC(=O)NCc2cccc(Cl)c2)n1 39.8 µM [inhibitor, single point]
O=C(CN1CCN(CCN2C(=O)c3cccc4cccc(c34)C2=O)CC1)c1ccc(F)cc1 10 µM [inhibitor, partial curve]
CCOc1cc(N2CCOCC2)c(OCC)cc1NC(=O)c1ccc(OC)cc1 37.7 µM [inhibitor, partial curve]

Potency, active:
CCCn1c2ccccc2c2nnc(SC(CC)C(=O)Nc3sc4c(c3C#N)CCCC4)nc21 (centres undefined) 28.2 µM
N#CCCCS(=O)(=O)c1nnnn1-c1ccc(F)cc1Br 17.8 µM
COc1ccc(NC(=S)NNC(=O)CNc2ccc(Cl)cc2)cc1 10 µM
CCOc1cccc(C2NC(=S)NC(C)=C2C(=O)Nc2ccccc2)c1 (centres undefined) 2.24 µM
Cc1ccc(C)c(S(=O)(=O)N/N=C/c2cccnc2)c1 8.91 µM
O=C(NC1CCCCCC1)C(=S)N1CCOCC1 10 µM

activity, negative = inhibition, inactive:
CN1C(=S)SC(N(O)C(=O)NC2CCCCC2)C1(C)C (centres undefined) -12.1%
COCCn1c(N)c(NCc2ccccc2)c(=O)n(CC(=O)Nc2cc(C)ccc2C)c1=O 0.849%
CN(Cc1ccon1)Cc1cn(C)nc1-c1cccc(Cl)c1 -6.17%
CC(=O)N1CCN(C(=S)Nc2ccc(SC(F)F)cc2)CC1 4%
COc1ccc(-c2cc(CNS(=O)(=O)c3ccc(F)cc3)on2)cc1 -3.03%
C/C(=N/NC(=O)c1ccncc1)C1=C(O)CC(C)(C)CC1=O -3.2%
